Measured values reported in a collection of fitness landscapes (doi:10.1016/j.celrep.2020.107928).
The full ranking holds about 81,000 sequences; the median of “one-hybrid fitness for binding parS DNA” is about -0.17, and the highest 2% start at about 0.51. The list shows a part of the results.

B1: Caulobacter ParB omega fusion; a variant is named by its letters at X, in order, B8GW30 (parent)
chain: MESVVVGEPGMSEGRRGLGRGLSALLGEVDAAPAQAPGEQLGGSREAPIEILQRNPDQPRRTFREEDLEDLSNSIREKGVLQPILVRPSPDTAGEYQIVAGERAWRAAQRAGLKTVPIMVRELDDLAVLEIGIIENVQRADLNVLEEALSYKVLMEKFERTQENIAQTIGKSXSHVANXMRLLXLPDEVQSYLVSGELTAXHARAIAAAADPVALAKQIIEGGLSVRETEALARKAPNLSAGKSKGGRPPRVKDTDTQALESDLSSVLGLDVSIDHRGSTGTLTITYATLEQLDDLCNRLTRGI

Variants of: B1
Assay: one-hybrid fitness for binding parS DNA (scaled: cognate 1, non-cognate 0); higher = stronger binding
Details: with parS DNA site
Procedure, shortened: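 The reporter was HIS3, with the binding site 19 bp from the promoter, in E. coli USO used for bacterial one-hybrid selection of Caulobacter ParB libraries with four specificity codons randomised. Growth was on M9 lacking histidine, with 0.1 mM IPTG and 5 mM 3-AT, for 48 hours at 37°C. Illumina sequencing covered plasmids before and after selection; three replicate libraries were pooled and variants with under 10 reads dropped. A fitness score is the log change in variant-to-wild-type read ratio, rescaled to the cognate and non-cognate references.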

one-hybrid fitness for binding parS DNA, 0.764:
RTPG

one-hybrid fitness for binding parS DNA, 1.03:
RCCG

one-hybrid fitness for binding parS DNA, 0.295:
RREY

one-hybrid fitness for binding parS DNA, 0.219:
NKYM

one-hybrid fitness for binding parS DNA, 0.439:
RTKH

one-hybrid fitness for binding parS DNA, 0.797:
RQWC

one-hybrid fitness for binding parS DNA, ≤ 0.2:
NWSV
EFHC
QRIE
PTDN
LPCL
QMCY
HHMG
QYLY
LVHQ
NVIS
WKDP
HAKR
SFAA
VSTM
TNLN
SGSH
AASP
DPQQ
SRYM
LHWR
YNND
VLIA
FRSG
SNLF
FEDA
FSYT
DYWR
AAGD
CHLM
CERF
HLTD
GVIL
IAKS
IVVS
CVAC
FLAP
QWAC
QCNW
IYEV
MLVW
RGLR
QFNT
LQTL
KAHC
PSRN
VQWC
RGTK
LGWM
ISGC
HPVV
MDTV
PAWV
QDDR
DEMS
FHER
RMCD
CRPL
RHDH
TKLQ
CVKA
KGPL
YEQR
MGHG
KLKP
MRME
RPTK
HGPM
TTNE
QIEF
EVLA
CTYS
WCNR
QLMY
SNLI
SFAN
MNQL
ISGG
VGYG
YLHN
VRQH
YHSD
LQNT
PGFG
KKRP
HYHT
CATP
TFPH
PLRF
GCKG
AAQI
VNLN
QAPS
IRQE
QFIG
SAEI
DVRM
VKAV
VVKP
LSGY
QNLP
TLAF
IATC
CYVF
YIYF
RMLD
IRWY
GRYG
GHCG
GMKF
VDRF
PGFS
SEAC
LRHA
GTWD
TDKV
SEEV
LIFS
AIHE
KVKQ
QWDR
IIEL
NVYS
CTGT
HNTR
CMAC
NLCG
TQYM
FQRV
GLHT
HRGL
WVFR
MYCF
NINR
CRYE
LHQR
QTAC
WTCS
LPLL
NARI
PKSM
TSSA
SRIM
PRRN
MPEV
DTKL
FLQC
ECRK
VFEG
VLHR
NHKF
NPYG
THCV
AYLT
QLNS
VCQT
AVLI
LGDC
WHSC
GGMC
EVTY
QLTA
DPHL
HLRE
WFRT
PYCT
MANL
QNLS
SIGR
SHHG
SSHK
QIAG
NWSS
QPSM
VRDK
AVVS
VVVG
TYIC
NCME
LVQA
IVGW
IMAR
PVEI
GTVT
VHEL
WLWM
EFRN
NFRK
NFVS
VLYT
